Data taken from PubChem BioAssay (NCI).
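Grown in 96-well plates, cells were treated for 48 hours with each compound at five concentrations. Insufficient inhibition: endpoint recorded as highest concentration tested. GI50: concentration for 50% inhibition of growth. TGI denotes the concentration required for complete inhibition of growth.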

Tested on: NCI-H322M lung
Assay: DTP human tumour cell line panel, 48 h

Row | Structure (SMILES) | GI50 | TGI
1 | CC(C)(C)c1ccc(C(=O)Nc2sc3c(c2C(N)=O)CC/C(=N\O)C3)cc1 | 5.96 µM | 25.2 µM
2 | NC(N)=Nc1ccc(Oc2ccc(Nc3ccc(Cl)c(C(F)(F)F)c3)cc2)cc1 | 1.68 µM | 3.29 µM
